From PubChem BioAssay AID588855 (National Center for Advancing Translational Sciences (NCATS), 2011)
Screen size: about 410,000 compounds; about 5,000 (1.2%) were called active. Inconclusive means that the source gave no clear call. Such entries were picked first, then a sample of the others. Calls come from the whole dose curve; as a rule, active = well fitted inhibition curve with a large enough effect; inconclusive = small, poorly fitted or top-dose-only effect; inactive = no such curve, though single readings can be large or run the other way. Potencies of inconclusive entries are doubtful fits and often do not repeat.

assay: qHTS for Inhibitors of TGF-b; conditions: HepG2 CAGA-GFP TGF-b/SMAD3 reporter, GFP fluorescence, 18 h, TGF-beta stimulated, 500 pg/mL final; series mostly up to 46.1 µM; note: nearly all actives have a fitted effect of over 65% in size
In short: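 Inhibition of TGF-beta-driven CAGA-GFP reporter expression in HEPG2 cells is measured by cellular GFP fluorescence after 18 h stimulation with 500 pg/mL recombinant TGF-beta in 1% FBS medium at 37 degrees C.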
Potency is the fitted concentration of half-maximal effect; tags give direction and shape of the fitted curve.

SMILES | Potency
Cc1cccc(CN2CCCC(C(=O)c3cccc(OC(C)C)c3)C2)n1 (configuration not stated) | inconclusive: 14.1 µM [inhibitor, single point]
COc1ccc(C=O)cc1O | inactive
CCCCCc1nc2ccccc2c(=O)n1-c1ccc(Cl)cc1[N+](=O)[O-] | inconclusive: 5.62 µM [inhibitor, single point]
CCOc1cc2c(cc1OCC)-n1cccc1C(c1ccc(C)cc1C)NC2 (configuration not stated) | inconclusive: 35.5 µM [inhibitor, single point]
O=c1c2ccccc2nc(/C=C/c2ccccc2F)n1-c1ccccc1O | inconclusive: 17.8 µM [inhibitor, single point]
C=C1C(=O)O[C@H]2C[C@@H](C)[C@@H]3C=CC(=O)[C@@]3(C)C[C@H]12 | active: 4.47 µM
Cc1cccc(N2C(=O)NC(=O)/C(=C\c3cccn3-c3ccc(Cl)cc3)C2=O)c1 | inconclusive: 35.5 µM [inhibitor, single point]
Cc1ccc(C2=NOC(C)(c3nnc(-c4ccccc4)o3)C2)cc1 (configuration not stated) | inconclusive: 3.16 µM [inhibitor, single point]
Cc1cccc(-n2c(/C=C/c3ccc([N+](=O)[O-])o3)nc3ccccc3c2=O)c1 | inconclusive: 3.16 µM [inhibitor, single point]
Cc1cccc(C)c1-n1nnnc1C(c1cccc2ccccc12)N1CCC2(CC1)C(=O)NCN2c1ccccc1 (configuration not stated) | inactive
CCN1C[C@]2(COC)CC[C@H](O)[C@]34C1[C@](O)([C@@H](OC)[C@H]23)[C@@]1(O)C[C@H](OC)[C@H]2C[C@@H]4[C@@H]1[C@H]2OC | inconclusive: 0.631 µM [inhibitor, full curve, poor fit]
COc1ccc(CNC(=O)CSCc2cnn(-c3ccccc3)c2-n2cccc2)cc1OC | inconclusive: 2.24 µM [inhibitor, partial curve, poor fit]
CC1=CC(=O)C2=C(C)C[C@H](O)[C@@H]3[C@H](OC(=O)[C@H]3C)[C@@H]12 | inconclusive: 3.98 µM [inhibitor, single point]
COc1ccc(C(=O)CN2CCOCC2)cc1 | inconclusive: 20 µM [inhibitor, single point]
CN(C)c1ccc(CN2CCc3nc(N4CCN(c5ccccn5)CC4)ncc3C2)cc1 | active: 8.91 µM
COC(=O)C1=C(c2ccc(F)cc2F)C[C@@H]2CC[C@H]1N2C(=O)N1CCC(O)(c2ccc(Cl)cc2)CC1 | inconclusive: 20 µM [inhibitor, single point]
COC(=O)C1=C(c2ccc(Cl)c(C(F)(F)F)c2)C[C@@H]2CC[C@H]1N2C(=O)NCCOc1ccccc1 | inconclusive: 35.5 µM [inhibitor, single point]
COC(=O)Cn1cc(C=C2C(=O)NC(=O)NC2=O)c2ccccc21 | inconclusive: 35.5 µM [inhibitor, single point]
Nc1c(C(=O)Nc2ccc(F)c(Cl)c2)sc2nc3c(cc12)N1CCC3CC1 | inconclusive: 12.6 µM [inhibitor, single point]

SMILES | Potency
COc1ccc(Oc2cc(NC(=O)c3nn(C)cc3[N+](=O)[O-])cc([N+](=O)[O-])c2)cc1 | active: 10 µM
CCc1ccc([C@H]2[C@@H]3C(=O)C[C@@H]4C(=O)N(Cc5ccccc5)C(=O)[C@@H]4[C@@H]3CN2S(=O)(=O)c2ccc(C)cc2)cc1 | inconclusive: 2 µM [inhibitor, full curve]
C=CCn1c(O)c(C(C)=Nc2cc(OC)ccc2OC)c(=O)[nH]c1=O | inconclusive: 6.31 µM [inhibitor, single point]
COC(=O)C1=C(c2ccc(F)cc2OCc2ccccc2)C[C@@H]2CC[C@H]1N2C(=O)NCc1ccccc1 | inconclusive: 35.5 µM [inhibitor, single point]
Cc1cc(N2CCCCC2)nc2ccc(NC(=O)CCC(=O)N3CCN(c4cccc(Cl)c4)CC3)cc12 | inconclusive: 8.91 µM [inhibitor, partial curve]
COc1ccc(-n2nnnc2C(CCSC)N2CCC3(CC2)C(=O)NCN3c2ccccc2)cc1 (configuration not stated) | inconclusive: 11.2 µM [inhibitor, partial curve, poor fit]
COc1ccc(Nc2nc(N)nc(CSc3nc4ccccc4s3)n2)cc1 | inconclusive: 11.2 µM [inhibitor, partial curve, poor fit]
CCN1C(=O)c2ccccc2Sc2ccc(NC(=O)Nc3ccc(Br)c(C)c3)cc21 | inconclusive: 4.47 µM [inhibitor, full curve, poor fit]
O=C1NC(=O)N(Cc2ccccc2)C(=O)/C1=C/C=C/c1ccco1 | active: 11.2 µM
CCn1c(=O)oc2cc(NC(=O)CCl)ccc21 | inconclusive: 8.91 µM [inhibitor, partial curve]
Cc1cc(C)cc(NC(=S)NC2CC3CCCC(C2)N3Cc2cccs2)c1 (configuration not stated) | inconclusive: 28.2 µM [inhibitor, single point]
CC1=C(C/C(C)=C/c2ccccc2)/C(=C/CO)[C@H](O)[C@](C)(O)C12CC2 | inactive
Cc1ccc2c(c1Cl)NC(C(=O)O)C1CC(Sc3ccccc3[N+](=O)[O-])C(Cl)C21 (configuration not stated) | inactive
O=C(Nc1ccc(F)c(Cl)c1)N(Cc1ccc2c(c1)OCO2)C1CCN(Cc2ccccc2)CC1 | inconclusive: 35.5 µM [inhibitor, single point]
COc1ccc(C2/C=C\CN(C(=O)Oc3ccc(C(F)(F)F)cc3)CC(=O)N2Cc2ccc(F)cc2)cc1 (configuration not stated) | inconclusive: 35.5 µM [inhibitor, single point]
COCCCNC(=O)c1c(N)n(Cc2ccco2)c2nc3ccccc3nc12 | inconclusive: 17.8 µM [inhibitor, single point]
O=c1[nH]c2ccccc2n1C1CCN(C(c2nnnn2-c2ccc3c(c2)OCCO3)C2CC2)CC1 (configuration not stated) | inconclusive: 17.8 µM [inhibitor, partial curve, poor fit]
O=c1c2ccccc2sn1-c1ccc(Cl)cc1 | inconclusive: 17.8 µM [inhibitor, partial curve, poor fit]
